The labels stand for the following.
B1: TPR 5TU (parent)
chain: GGAUCUUCUCGAUCUAACAAAAAAGACAAAUCUGCCACAAAGCUUGAGAGCAUCUUCGGAUGCAGAGGCGGCAGCCUUCGGUGGCGCGAUAGCGCCAACGUUCUCAACUAUGACACGCAAAACGCGUGCUCCGUUGAAUGGAGUUUAUCAUG

This sample is rich in variants without activity. Some results are limits rather than exact numbers.

In this data set the parent is B1. Kind of data set: polymerase ribozyme fitness, log enrichment relative to wild type (log ratio); higher = more active; in vitro selection for triplet polymerase activity. The method in brief:
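PCR was used to build mutant libraries for each subunit of a heterodimeric triplet polymerase ribozyme, which were then transcribed. A single in vitro selection round, in triplicate, used a frozen incubation at −7 °C and recovered extended constructs by gel excision, streptavidin beads and RT-PCR. Fitness is the logarithm of genotype enrichment relative to wild-type enrichment, averaged over replicates with inverse-variance weights. The logarithm is base 2, and after Illumina sequencing only genotypes with ≥10 input reads and ≥1 read per output were kept.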
Regarding GGAUCUUCUCGAUCUAACAAAAAAGACAAAUCUGCCACAAAGCUUGAGAGCAUCUUCGGAUGCAGAGGCGUCAGCCUUCGGUGGCGCGAUAGCGCCAACGUUCUCAACUAUGACAUGCAAAACGCGUGCUCCGUUGAAUGGAGUUUAUCAUG [G71U C116U], the “polymerase ribozyme fitness (log ratio)” value is -2.4.
Consider GGAUCUUCUCGAUCUAACAAAAAAGACAAAUCUGCCACAAAGCUUGAGAGCAUCUUCGGAUGCAGAGGCGACAGCCUUCGGUGGCGCAAUAGCGCCAACGUUCUCAACUAUGACACGCAAAACGCGUGCUCCGUUGACUGGAGUUUAUCAUG [G71A G88A A138C], for which the “polymerase ribozyme fitness (log ratio)” value was no more than -4.2.
In the case of GGAUCUUCUCGAUCUAACAAAAAAGACAAAUCUGCCACAAAGCUUGAGAGCAUCUUCGGAUGCAGAGGCGGUAGCCUUCGGUGGGGCGAUAGCGCCAACGUUCUCAACUAUGACACGCAAAACGCGUGCUCCGUUGAAUGGAGUUUAUCAUG [C72U C85G], the “polymerase ribozyme fitness (log ratio)” value is -1.95.
In the case of GGAUCUUCUCGAUCUAACAAAAAAGACAAAUCUGCCACAAAGCUUGAGAGCAUCUUCGGAUGCAGAGGCGCCAGCCUUCGGUGGCGCGAUAGUGGCAAGGUUCUCAACUAUGACCCGCAAAACGCGUGCUCCGUUGAAUGGAGUUUAUCAUG [G71C C93U C95G C99G A115C] it was -3.95; in that of GGAUCUUCUCGAUCUAACAAAAAAGACAAAUCUGCCACAAAGCUUGAGAGCAUCUUCGGAUGCAGAGGCGUCAGCCUUCGGUGGCGCGAUAUCGCCAACGUUCUCAACUAUGACACGCAAAACGCGUGCUCCGUUAAAUGGAGUUUAUCAUG [G71U G92U G136A], -2.26; in that of GGAUCUUCUCGAUCUAACAAAAAAGACAAAUCUGCCACAAAGCUUGAGAGCAUCUUCGGAUGCAGAGGCGGGAGCCUUCCUUGGCGCGAUAGGGCCAACGUUCUAAACUAUGACUCGCAAAACGCGUGCUCCGUUGAAUGGAGUUUAUCAUG [C72G G80C G81U C93G C105A A115U], no more than -4.2.
For GGAUCUUCUCGAUCUAACAAAAAAGACAAAUCUGCCACAAAGCUUGAGAGCAUCUUCGGAUGCAGAGGCGUCAGCCUUCGGUGGCGCGAUAGCGCCAACGUUCUCAAUUAUGACACGCAAAACGCGUGCUCCGUUGAAUGGAGUUUAUCAUG [G71U C108U], the “polymerase ribozyme fitness (log ratio)” value is no more than -4.2.
In the case of GGAUCUUCUCGAUCUAACAAAAAAGACAAAUCUGCCACAAAGCUUGAGAGCAUCUUCGGAUGCAGAGGCGCCAGCGUUCGGUGGCGCGAUAGCGCCAACGUUCUCAACUAUGUCACGCAAAACACGUGCUCCGUUGAAUGGAGUUUAUCAUG [G71C C76G A113U G124A], the “polymerase ribozyme fitness (log ratio)” value was no more than -4.2.
With GGAUCUUCUCGAUCUAACAAAAAAGACAAAUCUGCCACAAAGCUUGAGAGCAUCUUCGGAUGCAGAGGCGGUAGCCUUCGGUGGCGCGAUAGAGCCAACGUUCUCAACUAUGACACGCAAAACGCGUGCUCCGUUGGAUGGAGUUUAUCAUG [C72U C93A A137G], the “polymerase ribozyme fitness (log ratio)” value is no more than -4.2.
As to GGAUCUUCUCGAUCUAACAAAAAAGACAAAUCUGCCACAAAGCUUGAGAGCAUCUUCGGAUGCAGAGGCGGGAGCCUUCGGUGGCGCGAUAGCGCCAACGUGCUCAACUAUGACACGCAAAACGCGUGCUCCGUUGAAUGGAGUUUAUCAUG [C72G U102G], the “polymerase ribozyme fitness (log ratio)” value is no more than -4.2.
As to GGAUCUUCUCGAUCUAACAAAAAAGACAAAUCUGCCACAAAGCUUGAGAGCAUCUUCGGAUGCAGAGGCGGUAACCUUCGGUGGCGCGAUAGCGCCAACGUUCUCAACUGUGACAUGCAAAACGCGUGCUCCGUUGAAGGGAGUUUAUCCUG [C72U G74A A110G C116U U139G A150C], the “polymerase ribozyme fitness (log ratio)” value was no more than -4.2.
As to GGAUCUUCUCGAUCUAACAAAAAAGACAAAUCUGCCACAAAGCUUGAGAGCAUCUUCGGAUGCAGAGGCGGGAGCCUUCGGUUGCGCGAUAGCGCCAACGUUCUCAACUAUGACACGCAAAACUCGUUCUCCAUUGAAUGGAGUUUAACAUG [C72G G83U G124U G128U G133A U148A], the “polymerase ribozyme fitness (log ratio)” value is no more than -4.2.
GGAUCUUCUCGAUCUAACAAAAAAGACAAAUCUGCCACAAAGCUUGAGAGCAUCUUCGGAUGCAGAGGCGCCAGCCUUCGUUGGCGCGAUAGCGCCAACGUUCUCCACUAUGACACGCAAAACGCGUGCUCCGUUGAAUGGAGUUUAUCAUG [G71C G81U A106C]: the “polymerase ribozyme fitness (log ratio)” value was no more than -4.2.
In the case of GGAUCUUCUCGAUCUAACAAAAAAGACAAAUCUGCCACAAAGCUUGAGAGCAUCUUCGGAUGCAGAGGCGACAGCCUUCGGUGGCGCGAUAGCACCAACGUUCUCAACUAUGACACGCAAAACGCGUGCUCCGUUGAAUGGAGUUUAUCAUG [G71A G94A] it was -2.94; in that of GGAUCUUCUCGAUCUAACAAAAAAGACAAAUCUGCCACAAAGCUUGAGAGCAUCUUCGGAUGCAGAGGCGGGAGCCUUCGGUGGCGCGAUUGCGCCAACGUUCUCAACUAUGACACGCAAAACGCGUGCUCCGUUGAAUGGAGUUUAUCAUG [C72G A91U], no more than -4.2; in that of GGAUCUUCUCGAUCUAACAAAAAAGACAAAUCUGCCACAAAGCUUGAGAGCAUCUUCGGAUGCAGAGGCGACAGCCUUCGGUGGCACGAUAGCGCCAACGUUCUCAACUAUGACACGCAAAACGCGUGCUCCGUUGAAUGGAGUUUAUCAUG [G71A G86A], -3.5.
On to GGAUCUUCUCGAUCUAACAAAAAAGACAAAUCUGCCACAAAGCUUGAGAGCAUCUUCGGAUGCAGAGGCGACAGCCUUCGGUGGCGCAAUAGUGCCAACGUUCUCAACUAUGUCAUUCAAAACGCGUGCUCCGUUGAAUGGAGUUUAACAUU [G71A G88A C93U A113U C116U G117U U148A G152U], for which the “polymerase ribozyme fitness (log ratio)” value is no more than -4.2.
In the case of GGAUCUUCUCGAUCUAACAAAAAAGACAAAUCUGCCACAAAGCUUGAGAGCAUCUUCGGAUGCAGAGGCGUCAGCCUUCGGUGGCGCGAUAGCGCCAACGUUCUCAACUAUGAUACGCAAAACGCGUGCUCCGUUGAAUGGAGUUUAUCAUG [G71U C114U], the “polymerase ribozyme fitness (log ratio)” value is no more than -4.2.
Regarding GGAUCUUCUCGAUCUAACAAAAAAGACAAAUCUGCCACAAAGCUUGAGAGCAUCUUCGGAUGCAGAGGCGACAGCCUUCGGUGGCGCGAUAGCGCCAACGUUCUCAACUAUGACACGCAAAACGCGUGCUCCGUUGAAUGGAGUUUAUGAUG [G71A C149G], the “polymerase ribozyme fitness (log ratio)” value was no more than -4.2.

(Values after the RNAGym collection of RNA variant scans (doi:10.1073/pnas.2313332121).)
